Test results taken from the supplement of paper PMC3334620.
In all, about 33,000 sequences were measured (“E-score (-0.5 to 0.5)”: median about -0.053, highest 2% from about 0.37 on). The list shows a part of the results.

Biological target: Hap1 (UniProt P0CE41)
Assay: PBM E-score (8-mer binding enrichment) (E-score (-0.5 to 0.5)); higher = stronger / more preferred TF binding; most listed sequences are background and not binding sites
Conditions: protein concentration: 200 nM; construct: GST-DNA-binding domain
Procedure, shortened: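 Universal all-10-mer Agilent arrays, double-stranded by primer extension on fresh or once-stripped slides, were probed with about 100-200 nM GST-tagged yeast transcription factors made by PURExpress. Fluorescent anti-GST detected bound protein, and masliner normalised the scans. E-scores from the Universal PBM Analysis Suite were given to each ungapped eight-base word pooled with its reverse complement.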

Sequence of UniProt P0CE41 (P0CE41 whole entry): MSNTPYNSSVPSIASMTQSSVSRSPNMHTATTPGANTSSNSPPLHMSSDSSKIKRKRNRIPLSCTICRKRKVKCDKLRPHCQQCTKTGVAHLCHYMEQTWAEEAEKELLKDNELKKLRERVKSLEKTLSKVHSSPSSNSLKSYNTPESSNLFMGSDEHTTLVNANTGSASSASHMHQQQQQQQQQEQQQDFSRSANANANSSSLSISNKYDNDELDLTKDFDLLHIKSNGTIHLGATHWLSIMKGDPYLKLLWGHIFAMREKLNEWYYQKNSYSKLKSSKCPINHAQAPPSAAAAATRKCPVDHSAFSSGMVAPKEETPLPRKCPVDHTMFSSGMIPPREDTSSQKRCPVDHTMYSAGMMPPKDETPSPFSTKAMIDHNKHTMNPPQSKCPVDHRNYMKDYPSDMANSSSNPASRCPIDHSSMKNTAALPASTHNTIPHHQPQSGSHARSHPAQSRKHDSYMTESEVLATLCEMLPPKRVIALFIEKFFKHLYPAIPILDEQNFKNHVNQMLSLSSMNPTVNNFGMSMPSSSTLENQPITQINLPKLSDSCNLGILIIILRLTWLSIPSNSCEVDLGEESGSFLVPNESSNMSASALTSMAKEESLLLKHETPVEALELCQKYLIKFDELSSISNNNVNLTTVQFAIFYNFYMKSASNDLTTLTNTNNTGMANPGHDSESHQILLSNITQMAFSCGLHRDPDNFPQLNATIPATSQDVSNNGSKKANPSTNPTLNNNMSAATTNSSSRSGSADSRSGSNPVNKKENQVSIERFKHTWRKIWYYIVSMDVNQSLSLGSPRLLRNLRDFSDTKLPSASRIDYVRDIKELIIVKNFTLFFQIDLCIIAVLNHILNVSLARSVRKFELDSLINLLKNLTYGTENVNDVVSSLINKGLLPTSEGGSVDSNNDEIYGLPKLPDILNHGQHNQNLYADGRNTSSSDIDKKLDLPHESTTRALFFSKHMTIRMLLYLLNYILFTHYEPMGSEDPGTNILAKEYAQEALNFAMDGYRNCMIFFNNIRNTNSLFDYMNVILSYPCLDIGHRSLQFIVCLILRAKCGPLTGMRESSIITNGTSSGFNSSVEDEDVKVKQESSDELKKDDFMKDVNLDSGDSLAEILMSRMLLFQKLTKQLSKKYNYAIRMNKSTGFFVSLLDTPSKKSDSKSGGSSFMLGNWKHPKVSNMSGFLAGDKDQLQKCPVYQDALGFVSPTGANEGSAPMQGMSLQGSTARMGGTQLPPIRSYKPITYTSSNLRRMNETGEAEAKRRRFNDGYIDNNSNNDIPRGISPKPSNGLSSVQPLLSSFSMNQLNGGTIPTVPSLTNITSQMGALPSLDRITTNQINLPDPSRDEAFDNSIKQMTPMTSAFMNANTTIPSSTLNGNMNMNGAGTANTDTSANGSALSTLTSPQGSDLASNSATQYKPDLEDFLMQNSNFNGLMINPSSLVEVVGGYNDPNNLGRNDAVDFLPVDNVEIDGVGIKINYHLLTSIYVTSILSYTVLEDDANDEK

Sequence	PBM E-score
AATGTTTC	0.0303
CGACGTTA	0.0906
ACTACGGC	0.0924
GACGCGGC	0.00827
CAAGCGGC	0.144
ACTTGACA	-0.22
CTCTTTAC	0.085
GTTGTCAA	-0.134
AGAAAACC	0.0688
GGAATACC	0.2
GCTATTAA	0.00159
CCCGGTCA	0.262
GCACATGA	-0.293
TCACTTAA	-0.167
ACCATTAG	-0.0367
GTAATACA	0.00268
ATATTGAC	-0.0686
AAGCCCCT	-0.00622
GTCTCTGA	-0.0538
CGCTTTAA	0.0294
AATGTCAC	-0.148
ATTCTGTC	-0.103
ACATAGCT	-0.179
ACATGGCC	0.0386
ACAACCTA	-0.174

Sequence	PBM E-score
TTGACCAA	-0.0424
ACGAGTCG	-0.116
CGAAGGAG	0.0326
CGTAACAA	0.0657
ATAAACTA	0.0419
GAGAGACC	-0.108
ACTCGAAA	-0.121
ACGTCCGC	0.357
TACATCTA	-0.157
ACAACCGT	-0.165
TGATAGCA	-0.126
CTGTCCGC	0.113
ATGTAAAT	-0.0606
AAATGATA	0.0825
GACTTTCA	-0.0117
GACAACCC	0.0988
AGCGGATG	0.0971
ATACACGG	0.0668
CGGCACTC	0.0678
ATTCAGAA	-0.14
AGAGCTAC	0.00866
CCGAAGGA	0.288
CACGATCC	0.0112
AGGGGCCC	-0.00787
GCACAAGC	-0.133

Sequence	PBM E-score
CTAATTAG	-0.056
AAGCGCTT	0.118
CCGAGACA	0.257
CCGTATAC	0.0873
ATCCGGTG	0.411
CATGGCCC	0.135
CTATAGCC	0.0206
CGGTGCAC	0.0646
ACTATTCA	-0.185
CGGTTCCC	0.177
GGGACAAA	0.0637
CTCCAGAC	-0.155
TAGGTTAA	0.0421
CAACCGCC	0.16
CTTATGTC	0.105
TCCGTTAA	0.408
TAGAGTAA	-0.0213
AAGGTTCG	0.0812
AGATCAAG	-0.109
GTTGGCAA	-0.171
TATGTGAA	-0.236
GCCTAACC	-0.127
CAAAGTCC	0.17
CAGCGCCG	0.219
CCCCTTCG	-0.0372

Sequence	PBM E-score
GCACATAA	0.073
CCAGGTAC	-0.269
AACCTGCC	-0.179
CGGAGAAA	0.413
CAGCAGAC	-0.147
CCGTGTCC	0.226
ACGTATCA	-0.0537
CCAGGTAA	-0.0912
AACTAATA	0.186
GGGAATCA	-0.0963
CAAAGCCG	0.209
AAGGGACG	-0.0437
ACAAAAGT	-0.134
TAAAGGCA	-0.0704
CGAGTAGA	-0.0709
ACAAAATC	0.0168
ACTTGATG	-0.181
ACCTGCGT	0.0285
CGCATACG	-0.00047
CCTTAAGG	0.103
ATCAGTCC	-0.0617
GGGTTGAA	-0.0933
CGCTAGGA	-0.107
GAAGTAGC	0.0793
AACCACAT	-0.119

Sequence	PBM E-score
GATGGGGA	0.0487
GTGGCCAA	-0.236
GGCCTTTA	0.0935
CATGAACG	-0.147
AGTCTCAC	-0.131
GGGGGCGA	-0.122
CTGCGTAC	-0.231
CCCAAGCC	0.00674
CAGCCACA	-0.12
AATCGATT	-0.117
CTGGCACC	-0.118
ATAAGGAC	-0.0961
CAACGGTA	0.0998
ACACGTGC	-0.151
CACAGCAG	-0.345
ACGGGAGC	0.0123
CCAGATGA	-0.11
TAGGTCCA	-0.114
ATTATCAC	0.0984
TATCTTAA	-0.0898
AATACGTA	-0.0255
ATTAGCAA	0.00411
AAAGGTTA	-0.133
ACCGCCGC	0.233
ACCGCGTC	0.107

Sequence	PBM E-score
TATCGTAA	0.141
AAAAGCAG	-0.208
GGTGATAC	0.14
GCATGGCA	0.039
CACCGCAC	0.0364
GCGAAACC	0.126
CAGCTTGG	-0.129
ACGGGTAA	0.0344
CTAACCTC	-0.00528
AGGCCCAT	-0.13
GAGGCCCC	0.021
AAAGGAAC	0.0896
TCTATAGA	-0.183
GCGCCCAA	0.0445
CCGAGAGC	0.396
GATCACAA	0.0173
ATATACAA	0.0542
TATCAAAA	-0.0714
ACTACATC	-0.0278
CTCGTCAC	-0.126
CAACTTTA	-0.13
GAAACGGC	0.108
CCAAGCAC	-0.0712
GCCCGAGA	0.391
GGACGAAC	0.278

Sequence	PBM E-score
CCGAATAC	0.365
AAATAATG	0.0355
GCTAAGCA	-0.0915
GTAAGATA	-0.0022
ACCCTGGC	-0.146
CGTTGTAA	0.0216
ATATGGTA	-0.134
AACGTAGT	-0.279
CACATTGA	-0.0713
GGTGTTAA	0.334
GCCGGTCA	0.177
GCGAAACA	-0.0189
ACCATTGC	-0.076
CGAGTTAC	-0.0647
CTCAATTC	0.012
CTCACGAG	-0.227
AGAGGTTC	0.0367
ATCATGCA	-0.312
GTGTGTAA	-0.199
ACGATCGT	-0.0959
AGAACCAC	-0.0218
CCTCTTGA	-0.315
